# Source: the supplement of paper PMC11417369
# ± gives the standard deviation of the averaged measurements. Some of the results follow.
# System: PfAP2-G AP2 domain (GST-tagged)
# Assay: gcPBM binding intensity (ln(normalized median fluorescence intensity)); higher = stronger DNA binding
# Summary of the method: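 An Agilent 4 × 180k array carrying primer-extended double-stranded 36-bp intergenic genomic probes and negative controls received GST-tagged P. falciparum DNA-binding domains expressed in E. coli, about 25 μg on average, for 1 h. The binding buffer contained 1× PBS, 1% milk, 0.2 mg/ml BSA, 0.5% salmon testes DNA and 0.03% Triton X-100. Binding intensity is the top Masliner-normalised natural-log median intensity across replicate spots of either probe orientation, read after Alexa488 anti-GST antibody staining and a 488 nm scan.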
row,Sequence,gcPBM binding intensity (ln)
1,ATACAGATAGGATGCACACATAATTCAAATACAATA [CACACA_site4531],10.2 ± 0.13
2,ATATAATAATAATATTGTACAATAAAAAATATATAT [XGTACX_site7350],10.9 ± 0.5
3,ATGTCAAGAACTGAACGTACAAACTTTGTAATATTG [XGTACX_site8754],11.1 ± 0.64
4,AGTAATAATCGGCATGCATGTCAGTGGTAGTATATA [TGCATGCA_site312],10.3 ± 0.41
5,AAATTTTATGTATAATGTACACATAAATTTTTCTTT [XGTACX_site7266],11.4 ± 0.76
6,GTCAACAAGAATTAAGTGCATAATTTTTTATTAAAT [GTGCAC_site9492],10 ± 0.11
7,TTAAGTAGTACATACACACACATATACAAAAAGAAA [CACACA_site3972],11.7 ± 1.2
8,TACTTTTTTCCTATTATGTTTCTTATTTTTATAAAT [XGTACX_negctrl_site561],10.3 ± 0.2
9,AAGGAATGCATATAGGTGCTACACATAAAAATAAAA,10.1 ± 0.057
10,TATTATTTTAATTATTCACACATTATTATAAAAATT [CACACA_site5538],9.89 ± 0.085
11,CATATACACGAACACACACACATATAAATAAATATA [CACACA_site6379],10.3 ± 0.37
12,AGTAAAAAAAAAAAAAAAAAAAAAAAAAAAAAAAAA [GTGCAC_negctrl_site147],9.81
13,TATTAATATTTTTGTTGTACTTAAAAATGATGGTAG [XGTACX_site3501],11.4 ± 0.77
14,GGAATATTAAAAAAATGTACAAAAAATAATATCCAT [XGTACX_site2596],10.9 ± 0.4
15,TTTATTAATAATTATACACACATATAAAATGAATAA [CACACA_site1359],9.97 ± 0.12
16,AAAATATCTTGTTACTGTACAAATATAAATAAATAC [XGTACX_site3684],10.9 ± 0.65
17,TATAATGTTAAATAATGTACATATATTTTTTTTTTT [XGTACX_site4722],11.1 ± 0.74
18,TATATATATTAAAAAGTGCATTATTCATATTATATA [GTGCAC_site9400],9.85 ± 0.23
19,TTACAATTTAATATATGTACATATTTGTGATTTATC [XGTACX_site2911],11.2 ± 0.64
20,AATGGGTAAACATACACACACACATATATATATATA [CACACA_site1991],10.1 ± 0.22
21,ATATATACGTATGAATGTATATTTGTTTGAATTTTT [CACACA_negctrl_site524],9.965 ± 0.092
22,AATAATAACATACAGACACACACGTAAAAGCACGTG [CACACA_site253],10.29 ± 0.064

row,Sequence,gcPBM binding intensity (ln)
1,TTTATATATTAATATGCACACACAAGAAGTAATTAT [CACACA_site9045],10.4 ± 0.33
2,TATTGCACAAAATAATTTTATTATACTTTATGTTAG [TGCATGCA_negctrl_site574],9.7 ± 0.22
3,ATTTATAAAATTAATAGTACATATATTTATATATAT [XGTACX_site4173],11.1 ± 0.85
4,TTTTTATGTAGAATTTTTTTATTTTTTCAAAATGGA [CACACA_negctrl_site166],9.695 ± 0.021
5,ATTGTAATCATATGAAGTACTAATATATATTTTAAT [XGTACX_site8350],11 ± 0.7
6,ATTTGGCATAGACACACACACACACGCACGCACATA [CACACA_site6424],10.5 ± 0.38
7,TATGTTCATCATAGCACACATATATAAATTACAACA [CACACA_site3533],10.1 ± 0.16
8,CAAAAATAAACTATAGTACACACTTATTATTATGAA [CACACA_site2702],11.3 ± 0.84
9,AATGAAGAAAAAAAAAGTACATTATTTTTAAAACTT [XGTACX_site563],11.5 ± 0.91
10,AATTTTAAAAATATAACACACATATATAAAATATAT [CACACA_site3610],9.92 ± 0.31
11,ATTATAAATATGTATATACACACTTTTAATATTCAT [CACACA_site9367],10.04 ± 0.092
12,AAGCAAACATATTAATGTACACACACCCACACACAA [XGTACX_site5806],11.4 ± 0.76
13,TAAGATAAATGATAAAGTACTTTTTTTTTTTAAATA [XGTACX_site2326],11.3 ± 0.76
14,TTTTAAATAAAATATTGTACATTAAAATTGTAATAT [XGTACX_site2128],11 ± 0.67
15,AACAACTATTAATTTACACACATGTATTTATTTTAC [CACACA_site5683],10.1
16,TCTTATATATTTATTTGTACATATATATATATATAT [XGTACX_site7214],10.9 ± 0.55
17,AATATATGCTTTCGTTATATTAAATTCAATTTAATG [GTGCAC_negctrl_site76],9.94 ± 0.11
18,AATTGTCAGAGAATATGTACTTAAGTATTTATTGTT [XGTACX_site1947],11.2 ± 0.69
19,ATAAAAAAATAAAACACACACATATATATTATATAT [CACACA_site2810],9.91 ± 0.014
20,TAAATAAAAAAACACACACACATATATATATATATA [CACACA_site2269],9.99 ± 0.36
21,AATGCATTGATTGCATTCAAAAAAAAAAAAAAAAAA [XGTACX_negctrl_site597],9.55 ± 0.36
22,AATAAGATATCTACAACACACATTTAATTTTTTTTT [CACACA_site1641],9.54 ± 0.42
